Certain results were filed several times, with different values. They are shown here; other results are not. There may be further records. Values given together are repeats across runs, samples, wells, individuals or studies. Signs of the kind (2×) say how often a value occurs here. Marks such as [2022-09] give the month of the run. Each block holds one molecule with its values, some of them ahead of it.
Tested on: 349418-098-R-PDC complex spheroid growth
Assay: Anticancer human tumor 349418-098-R-PDC patient-derived lung adenocarcinoma cell line growth inhibition [AhR]
Conditions: for IC50: combination with AhR antagonists, compound alone; for viability, T/C: stronger effect = lower value
Text: Multicellular complex tumor spheroid response to aryl hydrocarbon receptor antagonists in combination with a variety of drugs and investigational agents in selected tumor cell lines
The current study was undertaken to assess response to aryl hydrocarbon receptor antagonists in combination with standard-of-care drugs and investigational agents in solid tumor complex spheroid models. Complex spheroids include a stromal component modeled by human endothelial cells (HUVEC) and fibroblasts modeled by human mesenchymal stem cells (MSCs). The concentration ranges selected for each drug and investigational agent were based upon clinically achievable concentrations if the clinical Cmax of the agent was known.
Compounds. The drugs and investigational agents: BAY 2416964 (NSC825713), GNF351 (NSC835774), CH-223191 (NSC835775), CPI-455 (NSC825282), aza-TdCyd (NSC777586), decitabine (NSC127716), belinostat (NSC758774), entinostat (NSC756642), pevonedistat (NSC761192), tazemetostat (NSC777109), talazoparib (NSC765396), olaparib (NSC753686), selinexor (NSC780203), nedisertib (M3814, NSC802822), bortezomib (NSC756655), venetoclax (NSC766270), doxorubicin (NSC123127), elimusertib (BAY189344, NSC800525), ceralasertib (AZD6738, NSC777638), TAK-243 (NSC785004), alisertib (NSC759677), etoposide (NSC141540), topotecan (NSC609699), eribulin (NSC707389), gemcitabine (NSC613327), carboplatin (NSC241240), cisplatin (NSC119875), and SN-38 (NSC673596) were obtained from the National Cancer Institute (NCI) Developmental Therapeutics Program Chemical Repository (32). The FDA-approved anticancer drug set is available from the Developmental Therapeutics Program at https://dtp.cancer.gov/organization/dscb/obtaining/available plates.htm. […] The stock solutions were prepared in dimethyl sulfoxide (DMSO, Sigma-Aldrich, St. Louis, MO, cat. D2650), except for the platinum compounds which were prepared in saline (Quality Biological, Gaithersburg, MD, cat. 114-055-101), at 800-fold the tested concentration and stored at -70 degrees C prior to their use. All drugs and investigational agents were tested over a range starting from a high concentration at or near the clinical Cmax and decreasing in half-log increments. If the clinical Cmax for an agent had not been determined, the highest concentration tested was 10 microM (Table 1).
Cell Culture. All cells were maintained in an incubator at 37 degrees C and 5% CO2 with 95% humidity. The PDC lines were cultured according to standard operating procedures established by the NCI PDMR (https://pdmr.cancer.gov). Briefly, all PDCs were thawed and cultured in Matrigel-coated flasks prepared with a working solution of 1X Ham's F-12 nutrient mix, without supplementation (Invitrogen, Waltham, MA, cat. 11765054), 100 U/mL penicillin-streptomycin (Invitrogen, cat. 15140122), and 2.5% Matrigel (Corning Inc., Corning, NY, cat. 354248) for the first three passages. All PDCs were cultured in complete DMEM/F-12 media containing advanced DMEM/F-12 (Invitrogen, cat. 12634028), 4.9% defined fetal bovine serum, heat inactivated (HyClone Laboratories Inc., Logan, UT, cat. SH30070.03HI), 389 ng/mL hydrocortisone (Sigma-Aldrich, cat. H4001), 9.7 ng/mL human EGF recombinant protein (Invitrogen, cat. PHG0313), 23.4 microg/mL adenine (Sigma-Aldrich, cat. A2786), 97.3 U/mL penicillin-streptomycin (Invitrogen, cat. 15140122), 1.9 mM L-glutamine (Invitrogen, cat. 25030081), and 9.7 microM Y-27632 dihydrochloride (Tocris Bioscience, Bristol, United Kingdom, cat. 1254). The PDCs were cultured in complete DMEM/F12 media without 10 microM Y-27632 dihydrochloride for at least two passages prior to the screen. The established cell lines NCI-H1341 and […] were cultured in DMEM/F-12, HEPES (Invitrogen, cat. 11330032), 5% defined fetal bovine serum (HyClone Laboratories Inc., cat. SH30070.03), ITS premix universal culture supplement [insulin (5 microg/mL), transferrin (5 microg/mL), and selenious acid (5 ng/mL)] […]
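Also: spheroids exposed to agents for seven days before luminescence viability read.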
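For viability, T/C in this document: spheroids also contain HUVEC endothelial cells and human MSC stroma.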

SMILES: CC(CO)NC(=O)c1cc(-c2ccc(Cl)cc2)nn(-c2cnn(C)c2)c1=O (stereo not given)
IC50 (run of 07/12/2022): > 10 µM, 9.86 µM, 7.61 µM, 8.83 µM, 7.38 µM, 8.02 µM, 8.68 µM, 6.12 µM, 7.11 µM, 9.92 µM
viability, T/C (compound alone 0.1 µM): 103 (2×), 93.2, 80.1, 98.1, 113, 73.9, 95.6, 93.9, 124, 114, 81.3, 87.5, 76.5, 73.8, 77, 82.2, 100 (2×), 89.7%
viability, T/C (compound alone 0.316 µM): 102, 117, 88.6, 101 (2×), 90.5, 96.8, 87.9, 116, 115, 89.1, 83.3 (2×), 108, 91.1, 91.4, 100, 81.9, 105, 79.7, 84.3%
viability, T/C (compound alone 1 µM): 77.6, 98.1, 82.8, 81.5, 84.1, 83.9, 82.5, 82.6, 99.9, 112, 77.5, 83.2, 90.1, 79.2, 89.2, 88.9, 67.7, 91.1, 72.3, 72.8, 85.5%
viability, T/C (compound alone 3.16 µM): 60.9, 78.1, 92.3, 62, 66.1, 79.5, 77, 91.4, 86.6, 66.8, 63.5, 76.4, 73.7, 71, 67.6, 68.7, 66.9, 83.5, 71.5%
viability, T/C (compound alone 10 µM): 69.2, 50, 61.4, 51.3, 65.5, 41.2, 60.8, 76.6, 53.6, 62.2, 48.4, 58.9 (2×), 41.6, 52.7, 42.9, 52, 44.3, 36.8%

IC50 (run of 07/26/2022): > 10 µM, 8.89 µM, 7.12 µM, 9.34 µM
SMILES: Cc1ccccc1N=Nc1ccc(NC(=O)c2ccnn2C)c(C)c1
viability, T/C (compound alone 0.1 µM): 101, 110, 72.3, 84.8, 98, 84, 109, 113, 87.8, 79.7, 91.4, 115, 85.6, 96.1, 88.9, 90.7, 116, 68, 84.4, 96%
viability, T/C (compound alone 0.316 µM): 99.7, 76.9, 61.4, 84.6 (2×), 91.9, 73.6, 59.9, 97.2, 98.8, 102, 87.1, 86.2, 92.7, 82.9, 85.6, 110, 94.4, 87.7, 92%
viability, T/C (compound alone 1 µM): 103, 111, 86.8, 102, 85.5, 78.4, 65.7, 75.2, 71.4, 85, 88, 86, 84.3, 93.2, 91.3, 92.3, 75.3, 89.7, 76.3, 104%
viability, T/C (compound alone 3.16 µM): 82.6, 74.9, 65, 87, 104, 83.5, 83.6, 67.8, 66.4, 106, 63.5, 80, 85.7, 86.1, 95.9, 74.8, 78.8, 93, 71.3, 61.2%
viability, T/C (compound alone 10 µM): 76.2, 63.7, 52.5, 63.3, 69.1, 46.6, 60.6, 50.4 (2×), 52, 51.2, 44.4, 60, 67.9, 47.5, 62.5, 68.7, 80.7, 54.9, 71.3%

SMILES: Cc1cncc(-c2nc(NCCc3c[nH]c4ccccc34)c3ncn(C(C)C)c3n2)c1
IC50 (run of 07/18/2022): 1.55 µM, 1.82 µM, 1.66 µM and 1.92 µM, 1.84 µM, 1.78 µM, 3.86 µM, 1.79 µM, 1.81 µM, 1.65 µM, 1.87 µM, 1.9 µM, 1.99 µM, 1.94 µM, 1.75 µM, 831 nM, 2.83 µM, 1.73 µM [2022-07]
viability, T/C (compound alone 1 µM): 86.3, 80.9, 87.8, 80, 85.8, 86.9, 87, 87.9, 76.1, 89.4, 85, 85.2 (2×), 82.5, 76.5, 80.8, 72.5 (2×), 40.5, 91.3, 86.8%
viability, T/C (compound alone 3.16 µM): 22.3, 21.4, 19.8, 59.2, 13.9, 17, 14.6, 16.2, 16.8, 22.6, 26.3, 26.2, 22.5, 19.4, 19.5, 87, 13.5, 45.6, 25.1, 11.1%

Source: PubChem BioAssay AID1918996 (Molecular Pharmacology Branch, DTP, NCI, 2023)
